Laboratory results taken from patent publication US20260015416A1, “TREATMENT OF DRUG-RESISTANT HEPATOCELLULAR CARCINOMA” (Alentis Therapeutics AG, priority 2022, published 2026).

Tests used:
[1] = test system: HCC patient-derived spheroids (primary HCC tumorspheres); experiment: Microscopy of HCC patient-derived tumor spheroids (architecture); assay type: cell-based, human; settings: 10 μg/mL mAb, day 6 post-treatment, vs control mAb; FIG. 1A
Protocol: Scale bars 200 μm. FIG. 1B depicts graphs showing relative cell viability after 6 days of treatment with anti-Claudin-1 mAb “H3L3” (Table 1) or sorafenib compared to control mAb treated spheroids (n=3 replicates per condition, p=0.003 and p=0.04, Student's t-test). Bars show mean±SEM. *p<0.05, **p<0.01, ***p<0.001, **** p<0.0001. FIG. 1C depicts a heatmap showing cell viability of tumor spheroids (n=15 donors) were treated with anti-Claudin-1 mAb “H3L3”, control Ab, sorafenib or nivolumab. Heatmaps illustrate % cell viability compared to control mAb treated cells on day 6 using ATP quantification (n=15 different donors with at least duplicates per condition). Donors (# ST1, # S06, # S15, # S16, # S17, # S18, # R2, # R21, # R24, # R11, # 381, # S19, # S22, # S349, # S394). […]
(§1) Tumorspheres were treated for 6 days with 10 μg/mL isotype control mAb, with 10 μg/mL anti-Claudin-1 mAb “H3L3” (Table 1), with sorafenib (10 μM, Selleckchem) or with Nivolumab (10 μg/mL, Selleckchem) with at least duplicates per condition. Tumorsphere viability was assessed at day 6 using CellTiterGlo 3D (Promega) according to the manufacturer's instructions.

[2] = test system: HCC patient-derived spheroids (primary HCC tumorspheres); experiment: HCC patient-derived spheroid viability (CellTiterGlo 3D, ATP quantification); assay type: cell-based, human
Excerpt: Fragments of tumor tissue (5×5 mm to 8×8 mm size) were excised from tumor mass of HCC patients (n=15 different donors, Table 2) and then processed with enzymatic and mechanical dissociation to generate clusters of tumor cells similarly as described recently (Crouchet E, et al., Nat Commun 2021; 12:5525; Jühling F, et al., Gut 2021; 70:157-69). Aggregates of cells were assembled into spheroids in 96-well Black/Clear Bottom Low Flange Ultra-Low Attachment Microplates (Corning) and cultured in MammoCult basal medium (STEMCELL Technologies), supplemented with human proliferation supplement (3.4%), hydrocortisone (0.056%), heparin (0.011%) and 50% patients' own serum.
as §1

B1: H3L3: humanized anti-Claudin-1 monoclonal antibody; heavy chain SEQ ID NO: 11, light chain SEQ ID NO: 12 (VH SEQ 13, VL SEQ 14) (antibody)
heavy: QVQLVESGGGVVQPGRSLRLSCLGSGFSFSSYGMNWVRQAPGKGLEWVASISPSGSYFYYADSVKGRFTISRDNSKNTLYLQMTSLRAEDTAIYYCARLPGFNPPFDHWGQGTLVTVSSASTKGPSVFPLAPSSKSTSGGTAALGCLVKDYFPEPVTVSWNSGALTSGVHTFPAVLQSSGLYSLSSVVTVPSSSLGTQTYICNVNHKPSNTKVDKRV[sequence of human IgG1 Fc not given]
light: DIQMTQSPSSLSASVGDRVTITCKASQNVGGNVDWYQWKPGKAPKLLIYGASNRYTGVPDRFRGSGSGTDFTLTISSLQPEDVATYYCLQYKNNPWTFGGGTKVEIKRTVAAPSVFIFPPSDEQLKSGTASVVCLLNNFYPREAKVQWKVDNALQSGNSQESVTEQDSKDSTYSLSSTLTLSKADYEKHKVYACEVTHQGLSSPVTKSFNRGEC
B1 was tested, and the “effect on architecture of HCC spheroids” value [1] was “markedly disrupted the architecture of HCC spheroids”, the “effect on sorafenib-resistant HCC spheroid cell viability” value ([2]; 10 μg/mL, 6 days of treatment, vs control mAb treated spheroids, n=3 replicates, p=0.003 and p=0.04, Student's t-test, FIG. 1B) was “pronounced effect” and the “response rate (defined as a mean decrease in cell viability of >15%)” value ([2]; HCC spheroids from 15 different HCC patients, 6 days, H3L3 10 μg/mL, sorafenib 10 μM, nivolumab 10 μg/mL, vs control mAb, FIG. 1C) was 47%. The “effect on HCC growth including sorafenib- and nivolumab-resistant tumors” value ([2]; overall conclusion from the patient-derived spheroid data) was “strong suppressive effects”.
